# Laboratory results taken from the supplement of paper PMC4723716.
# ± gives the uncertainty stated by the source. In all, about 9,900 compounds were measured (“viability index relative to DMSO control”: median about 1, lowest 2% from about 0.85 on). This is one part of the list.
# Tested on: Plasmodium falciparum NF54 stage V gametocytes
# Assay: viability index relative to DMSO control (fraction); higher = less gametocyte killing
# Details: 2.5 µM, library set: Broad Institute DOS, incubation time: 72 h
# Protocol: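 Broad DOS informer set and blood-stage-active DOS compounds screened in duplicate at 2.5 µM against P. falciparum NF54 stage V gametocytes with the serum-free one-step SaLSSA (1536-well): 72 h at 37 °C under low oxygen, then saponin lysis and MitoTracker Red CMXRos staining, with high-content imaging. Viability index = viable-object count divided by the plate mean of DMSO wells (0 = killed, about 1 = inactive).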
row,Compound,viability index
1,O=C(Cc1ccncc1)N1CCCCN2[C@H](C1)[C@@H](c1ccc(C#Cc3ccccc3F)cc1)[C@@H]2CO,0.971 ± 0.021
2,O=C(Cc1ccccc1)N1CC2(C1)[C@H](c1ccccc1)[C@@H](CO)N2Cc1cccc(Cl)c1,1.14 ± 0.029
3,C/C=C/c1ccc2n(c1=O)C[C@H]1[C@H](CO)[C@@H](C(=O)OC)[C@@H]2N1S(=O)(=O)c1ccccc1C.C/C=C\c1ccc2n(c1=O)C[C@H]1[C@H](CO)[C@@H](C(=O)OC)[C@@H]2N1S(=O)(=O)c1ccccc1C,1.07 ± 0.013
4,C[C@@H]1CN([C@H](C)CO)C(=O)CCCn2nncc2CO[C@H]1CN(C)C(=O)Oc1cccc2ccccc12,1.084 ± 0.0053
5,COc1cccc(-c2ccc([C@H]3[C@@H](CO)N4CCCCN(C(=O)Cc5ccncc5)C[C@H]34)cc2)c1,1.06 ± 0.046
6,O=C(Cc1ccncc1)N1CCCCN2[C@H](C1)[C@H](c1ccc(C#Cc3ccccc3F)cc1)[C@@H]2CO,0.923 ± 0.069
7,OC[C@H]1Nc2ccc(C#Cc3cccnc3)cc2[C@H]2NCC[C@H]21,1.06 ± 0.021
8,COc1cccc(-c2ccc([C@H]3[C@@H](CO)N4CCCCN(C(=O)Cc5ccncc5)C[C@@H]34)cc2)c1,0.97 ± 0.021
9,C[C@@H]1CN([C@H](C)CO)C(=O)CCCn2cc(nn2)CO[C@@H]1CN(C)C(=O)Oc1ccc2ccccc2c1,1.06 ± 0.052
10,C/C=C/c1ccc([C@H]2[C@@H](CO)N3CCCCN(C(=O)Cc4cccnc4)C[C@H]23)cc1,1.01 ± 0.039
11,O=C(O)[C@@H]1[C@@H](CO)[C@@H]2Cn3c(ccc(-c4cccnc4)c3=O)[C@H]1N2C(=O)Nc1cc(F)ccc1F,1.1 ± 0.081
12,C/C=C/c1ccc([C@H]2[C@@H](CO)N3CCCCN(C(=O)Cc4cccnc4)C[C@@H]23)cc1,1.03 ± 0.013
13,CN(C)CC#Cc1ccc([C@@H]2[C@@H](CO)N3CCCCN(C(=O)Cc4ccccn4)C[C@H]23)cc1,1 ± 0.092
14,C/C=C/c1ccc([C@@H]2[C@@H]3CN(S(C)(=O)=O)C[C@H]2N3)cc1,1.16 ± 0.091
15,O=C(Cc1ccccc1)N1CC2(C1)[C@H](c1ccccc1)[C@H](CO)N2Cc1cccc(Cl)c1,1.0745 ± 8.3e-05
16,CCC(=O)N1[C@@H]2c3ccc(C4=CCCC4)c(=O)n3C[C@H]1[C@H](CO)[C@H]2C(=O)OC,1.063 ± 0.0013
17,O=C(O)[C@H]1[C@H](CO)[C@H]2Cn3c(ccc(-c4ccncc4)c3=O)[C@@H]1N2S(=O)(=O)c1ccccc1F,1.03 ± 0.026
18,C/C=C/c1ccc([C@@H]2[C@@H]3CN(C(=O)C4CCOCC4)C[C@H]2N3)cc1,1.06 ± 0.011
19,O=C(Cc1ccncc1)N1CCCCN2[C@@H](CO)[C@@H](c3ccc(C#Cc4ccccc4F)cc3)[C@@H]2C1,0.964 ± 0.047

row,Compound,viability index
1,C/C=C/c1ccc([C@H]2[C@H]3CN(C(=O)Cc4cccnc4)CCCCN3[C@H]2CO)cc1,1.01 ± 0.074
2,O=C1CNC[C@@H]2[C@H](c3ccc(Br)cc3)[C@H](CO)N12,0.992 ± 0.074
3,C/C=C/c1ccc([C@H]2[C@H](CO)N3CCCCN(C(=O)Cc4cccnc4)C[C@@H]23)cc1,1.04 ± 0.011
4,C[C@H](CO)N1C[C@H](C)[C@H](CN(C)C(=O)Oc2cccc3ccccc23)OCc2cnnn2CCCC1=O,1.05 ± 0.013
5,O=C1CNC[C@@H]2[C@@H](c3ccc(Br)cc3)[C@@H](CO)N12,0.965 ± 0.037
6,O=C1CNC[C@H]2[C@H](c3ccc(Br)cc3)[C@@H](CO)N12,1.04 ± 0.06
7,COc1ccccc1CN1[C@@H](CO)[C@@H](c2ccccc2)C12CN(C(=O)Cc1ccccc1)C2,1.09 ± 0.027
8,O=C(Cc1ccncc1)N1CCCCN2[C@H](CO)[C@H](c3ccc(C#Cc4ccccc4F)cc3)[C@H]2C1,1.02 ± 0.013
9,O=C(Cc1ccncc1)N1CCCCN2[C@H](CO)[C@H](c3ccc(C#Cc4ccccc4F)cc3)[C@@H]2C1,0.9873 ± 0.0041
10,COc1cccc(CN2CC3(C2)[C@H](c2ccccc2)[C@H](CO)N3C(=O)Cc2ccccc2)c1,1 ± 0.064
11,COC(=O)[C@H]1[C@H](CO)[C@H]2Cn3c(ccc(-c4ccc(F)cc4)c3=O)[C@@H]1N2C(=O)c1ccccc1F,1.06 ± 0.054
12,CN(C)CC#Cc1ccc([C@@H]2[C@H](CO)N3CCCCN(C(=O)Cc4ccccn4)C[C@@H]23)cc1,0.951 ± 0.028
13,C/C=C/c1ccc([C@H]2[C@@H]3CN(C(=O)CN(C)C)C[C@H]2N3)cc1,1.02 ± 0.012
14,COC(=O)[C@@H]1[C@@H](CO)[C@@H]2Cn3c(ccc(-c4cccc(C(=O)N(C)C)c4)c3=O)[C@H]1N2C(=O)NC(C)C,1.07 ± 0.068
15,CCCNC(=O)N1[C@@H]2Cn3c(ccc(-c4ccccc4OC)c3=O)[C@H]1[C@@H](C(=O)OC)[C@@H]2CO,1.068 ± 0.01
16,C[C@H](CO)N1C[C@H](C)[C@@H](CN(C)C(=O)Oc2ccc3ccccc3c2)OCc2cn(nn2)CCCC1=O,1.036 ± 0.0031
17,CN1c2ccc(Br)cc2[C@H]2NCC[C@H]2[C@H]1CO,1.095 ± 0.0031
18,O=C(Cc1ccncc1)N1CCCCN2[C@H](CO)[C@@H](c3ccc(C#Cc4ccccc4F)cc3)[C@H]2C1,0.905 ± 0.07
19,O=C(O)[C@@H]1[C@@H](CO)[C@@H]2Cn3c(ccc(-c4ccncc4)c3=O)[C@H]1N2S(=O)(=O)c1ccccc1F,0.996 ± 0.044

row,Compound,viability index
1,CN(C)CC#Cc1ccc([C@@H]2[C@H]3CN(C(=O)Cc4ccccn4)CCCCN3[C@H]2CO)cc1,1.03 ± 0.11
2,C[C@@H]1CN([C@H](C)CO)C(=O)CCCn2cc(nn2)CO[C@H]1CN(C)C(=O)Oc1ccc2ccccc2c1,0.995 ± 0.059
3,C[C@@H]1CN([C@@H](C)CO)C(=O)CCCn2cc(nn2)CO[C@H]1CN(C)C(=O)Oc1ccc2ccccc2c1,1.09 ± 0.029
4,COc1cccc(-c2ccc([C@H]3[C@H](CO)N4CCCCN(C(=O)Cc5ccncc5)C[C@@H]34)cc2)c1,0.976 ± 0.028
5,C[C@H]1CN([C@@H](C)CO)C(=O)CCCn2nncc2CO[C@@H]1CN(C)C(=O)Oc1cccc2ccccc12,0.965 ± 0.051
6,C/C=C/c1ccc([C@H]2[C@@H]3CN(Cc4cncnc4)C[C@H]2N3)cc1,1.11 ± 0.064
7,OC[C@@H]1Nc2ccc(C#Cc3cccnc3)cc2[C@@H]2NCC[C@H]12,1.21 ± 0.09
8,C[C@@H]1CN([C@@H](C)CO)C(=O)CCCn2nncc2CO[C@@H]1CN(C)C(=O)Oc1cccc2ccccc12,1.04 ± 0.071
9,COC(=O)[C@@H]1[C@@H](CO)[C@@H]2Cn3c(ccc(-c4ccc(F)cc4)c3=O)[C@H]1N2C(=O)c1ccccc1F,1.08 ± 0.048
10,O=C([C@@H]1N[C@@H]2c3cccc(=O)n3C[C@@H]2[C@H]1CO)N1CCCCC1,1.037 ± 0.003
11,C/C=C/c1ccc([C@@H]2[C@@H]3CN(C(=O)CN(C)C)C[C@H]2N3)cc1,1.069 ± 0.0072
12,CN(C)CC#Cc1ccc([C@@H]2[C@@H](CO)N3CCCCN(C(=O)Cc4ccccn4)C[C@@H]23)cc1,1.03 ± 0.026
13,O=C1CNC[C@@H]2[C@@H](c3ccc(Br)cc3)[C@H](CO)N12,1 ± 0.0036
14,C/C=C/c1ccc([C@@H]2[C@H]3CNC[C@@H]2N3CC2CC2)cc1,1.03 ± 0.025
15,COc1ccccc1CN1[C@H](CO)[C@H](c2ccccc2)C12CN(C(=O)Cc1ccccc1)C2,1.1 ± 0.048
16,O=C(Cc1ccncc1)N1CCCCN2[C@H](CO)[C@@H](c3ccc(C#Cc4ccccc4F)cc3)[C@@H]2C1,0.9619 ± 0.0014
17,C[C@H](CO)N1C[C@H](C)[C@H](CN(C)C(=O)Oc2ccc3ccccc3c2)OCc2cn(nn2)CCCC1=O,0.995 ± 0.045
18,OC[C@H]1[C@@H]2c3ccccc3NC[C@@H]2N1Cc1cccnc1,0.941 ± 0.14
19,O=C(O)C[C@H]1CC[C@@H]2NC[C@H](O)COC[C@H]2O1,1.06 ± 0.016
